About 550 (1.1%) of roughly 48,000 compounds were called active. Roughly 4% stayed inconclusive and do not appear here. Cut-off read from the data, not from the text of the source: active = potency below about 15 µM; inconclusive = mostly about 16 µM to 33 µM; inactive = weaker than that. This is one part of the list.
Molecular target: Lysosomal acid glucosylceramidase (Homo sapiens) (UniProt P04062)
Test: Glucocerebrosidase;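 note: the screen sought inhibitors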
Details: purified enzyme, resorufin glucoside fluorescence (screen aimed at inhibitors), 20 min
In short: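 Normal human glucocerebrosidase (0.2 nM final) was assayed with resorufin β-D-glucopyranoside (30 uM final) in 50mM citric acid/KH2PO4, 10mM sodium taurocholate, 0.01% tween-20, pH 5.9. Compounds were titrated; fluorescence (Ex 548, Em 600) read after 20 min at RT.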
Potency is the fitted concentration of half-maximal effect.

Sequence of UniProt P04062 (P04062 whole entry, looked up): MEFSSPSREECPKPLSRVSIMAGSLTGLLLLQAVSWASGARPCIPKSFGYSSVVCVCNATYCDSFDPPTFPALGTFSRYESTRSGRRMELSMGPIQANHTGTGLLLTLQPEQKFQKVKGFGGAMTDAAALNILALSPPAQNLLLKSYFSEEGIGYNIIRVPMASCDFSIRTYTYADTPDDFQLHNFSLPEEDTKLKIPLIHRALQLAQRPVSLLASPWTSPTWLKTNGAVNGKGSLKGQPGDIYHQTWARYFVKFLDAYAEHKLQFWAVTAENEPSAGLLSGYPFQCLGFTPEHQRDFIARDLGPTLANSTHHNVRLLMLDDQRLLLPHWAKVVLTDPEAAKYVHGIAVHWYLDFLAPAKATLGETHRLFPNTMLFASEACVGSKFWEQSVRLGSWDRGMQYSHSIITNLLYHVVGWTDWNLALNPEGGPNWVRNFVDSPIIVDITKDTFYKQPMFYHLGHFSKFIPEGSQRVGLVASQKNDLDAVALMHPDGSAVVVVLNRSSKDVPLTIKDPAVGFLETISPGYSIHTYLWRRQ

Potency, inactive:
Cc1cc2cc(CN(Cc3ccc4c(c3)OCO4)C(=O)c3cnccn3)c3nnnn3c2cc1C > 76.9 µM
Cc1cc(C)nc(NC(=O)NS(=O)(=O)Nc2ccc(Br)cn2)n1 > 76.9 µM
O=C(CSc1nnc(Cc2ccccc2)o1)N1CCOCC1 > 76.9 µM
O=C(COc1ccccc1)n1nc(-c2ccc(Cl)cc2)nc1NCc1ccco1 > 76.9 µM
CC1Cc2ccccc2N1S(=O)(=O)c1cnc[nH]1 (stereo not given) > 76.9 µM
CC(=O)c1cnc(Nc2nc(C)c3cc(C)ccc3n2)nc1C > 76.9 µM
CCCC(c1nnnn1C1CCCCC1)N1CCN(C2CCCC2)CC1 (stereo not given) > 76.9 µM
COC(=O)c1ccccc1N=C(SC)N(C)C > 76.9 µM
CCC(C)NC(=O)C1CCCN(C(=O)Nc2ccc(F)cc2)C1 (stereo not given) > 76.9 µM
O=C(O)c1cccc(Cn2cc(Br)cn2)c1 > 76.9 µM
CCc1ccccc1NC(=O)Cn1nnc(-c2cccs2)n1 > 76.9 µM
C=CCn1c(SCC(=O)Nc2ccc(C(=O)OCC)cc2)nnc1-c1sc(N)nc1C > 76.9 µM
Cc1ccc(-n2ncc3c(=O)n(CC(=O)NC4CCCCC4)cnc32)cc1C > 76.9 µM
COc1cc(Cl)cc(C2NC(=O)NC(C)=C2C(=O)NCc2ccccc2)c1O (stereo not given) > 76.9 µM
Cn1c(=O)c2c(nc(N3CCN(c4ccccc4)CC3)n2CCCc2ccccc2)n(C)c1=O > 76.9 µM
Cc1ccc(NC(=O)CNS(=O)(=O)c2cccs2)cc1F > 76.9 µM
COC(=O)c1ccccc1NC(=O)NCc1ccco1 > 76.9 µM
COc1cc2[nH]c(=S)n(CCN3CCOCC3)c(=O)c2cc1OC > 76.9 µM
Cc1ccc(S(=O)(=O)N2CCCC2C(=O)NCc2ccco2)cc1 (stereo not given) > 76.9 µM
O=C(Cn1c(=O)oc2cc(S(=O)(=O)N3CCCC3)ccc21)Nc1cccc(C(F)(F)F)c1 > 76.9 µM
CC(=O)c1cccc(NC(=O)c2ccco2)c1 > 76.9 µM
COC(=O)c1ccccc1NC(=O)c1cc2ncc(Br)cn2n1 > 76.9 µM
COC(=O)c1ccc(C(=O)OC)c(NC(=O)Nc2ccc3c(c2)OCO3)c1 > 76.9 µM
C=C(C)CSc1nnc(-c2cc(OC)c(OC)c(OC)c2)n1N > 76.9 µM
Cn1cccc1Cc1nnc(SCC(=O)Nc2nc3ccccc3s2)n1CCc1ccccc1 > 76.9 µM
COc1cc2c(cc1OC)C(COc1ccc(F)cc1)N(C(=O)c1ccco1)CC2 (stereo not given) > 76.9 µM
CCS(=O)(=O)Nc1c(C(=O)OC)[nH]c2ccccc12 > 76.9 µM
CCOC(=O)CNC(=O)C1c2cc(OC)c(OC)cc2C(=O)N(C)C1c1ccccc1F (stereo not given) > 76.9 µM
Cc1ccccc1NS(=O)(=O)c1ccc(OCC(=O)N2CCCC2)cc1 > 76.9 µM
COC(=O)c1ccccc1NS(=O)(=O)c1ccc2c3c(cccc13)C(=O)N2 > 76.9 µM
COC(=O)c1c(NC(=O)Cc2cccs2)sc(C(=O)N2CCCCC2)c1C > 76.9 µM
Cc1c(C(=O)NCc2ccccc2)oc2ccc(S(=O)(=O)N3CCC4(CC3)OCCO4)cc12 > 76.9 µM
COc1ccc(NC(=O)N2c3ccccc3CC2C)cc1OC (stereo not given) > 76.9 µM
O=C(CCSCCc1ccccn1)Nc1ccccn1 > 76.9 µM
COc1ccc(C2C(C(=O)NCCN(C)C)c3cc(OC)c(OC)cc3C(=O)N2C)cc1OC (stereo not given) > 76.9 µM
COC(=O)c1cc(-c2ccc(Br)cc2)n[nH]1 > 76.9 µM
Nc1cc(C(=O)OCC(=O)N2CCCC2)ccc1Cl > 76.9 µM
CCOC(=O)C1=C(C)NC(C)=C(C(=O)OCC)C1C(=O)OCC(=O)N1CCCCC1CC (stereo not given) > 76.9 µM
Cc1nn(-c2ccccc2)c(Cl)c1C(=O)Nc1c(C)n(C)n(-c2ccccc2)c1=O > 76.9 µM
O=C(CSc1oc(-c2ccccc2)nc1S(=O)(=O)c1ccc(F)cc1)NCC1CCCO1 (stereo not given) > 76.9 µM
Cn1c(Cn2c(=O)sc3ccccc32)nnc1SCc1ccccn1 > 76.9 µM
CCc1nc(SCC(=O)Nc2c(C)n(C)n(-c3ccccc3)c2=O)n[nH]1 > 76.9 µM
O=C(c1cccnc1NCc1ccc(F)cc1)N1CCOCC1 > 76.9 µM
COc1ccc(NS(=O)(=O)c2cccc(-c3nnc4n3CCCCC4)c2)cc1 > 76.9 µM
Cc1cc(C(=O)Nc2ccc(S(=O)(=O)Nc3onc(C)c3C)cc2)c(C)o1 > 76.9 µM
CC(C)=CC(=O)Nc1ccc2c(c1)OCO2 > 76.9 µM
CCOC(=O)c1c(C)c(C(=O)Nc2ccc3c(c2)OCCO3)c(C)n1C > 76.9 µM
CCCCS(=O)(=O)c1sc2nc(C)cc(C)c2c1N > 76.9 µM
CCOc1ccc(C(CC(=O)O)NC(=O)c2ccco2)cc1OC (stereo not given) > 76.9 µM
Cc1cccc(N2CC34C=CC(O3)C(C(=O)O)C4C2=O)c1 (stereo not given) > 76.9 µM
Cc1ccc(S(=O)(=O)N(C)c2ccc(C(=O)O)cc2)cc1 > 76.9 µM
Cc1ccc(S(=O)(=O)NCCC(=O)NCCN2CCCCCC2)cc1 > 76.9 µM
CCOc1cc(C2C(C(=O)c3ccc(C)cc3)=C(C(=O)OC)Nc3nnnn32)ccc1O (stereo not given) > 76.9 µM
CCn1c(SCC(=O)N2CCCc3ccccc32)nnc1-c1c[nH]c2ccccc12 > 76.9 µM
CCn1c(CC(=O)Nc2ccc(C)cc2)nnc1SCC(=O)NCc1ccccc1 > 76.9 µM
CN(C(=O)c1ccccn1)c1nnc(-c2ccncc2)s1 > 76.9 µM
CCn1c(SCCOc2ccc(Cl)cc2)nnc1-c1cccs1 > 76.9 µM
COC(=O)c1ccc(NC(=O)CN2CCN(c3cccc(Cl)c3)CC2)cc1 > 76.9 µM
O=C(CCCN1C(=O)CCC1=O)Nc1ccc2c(c1)OCO2 > 76.9 µM
O=C1c2ccccc2C(=O)N1CCSc1nnc(-c2ccco2)n1Cc1ccccc1 > 76.9 µM
CCOC(=O)NC(CC(=O)O)c1ccc(OC)cc1 (stereo not given) > 76.9 µM
CCCOc1ccc(N2CC(C(=O)NC(C)C)CC2=O)cc1 (stereo not given) > 76.9 µM
CC(=O)C1=C(O)C(=O)N(CCN2CCOCC2)C1c1ccc(N(C)C)cc1 (stereo not given) > 76.9 µM
COc1ccc(NC(=O)CSc2nccc(C)n2)cc1 > 76.9 µM
Cc1cc(C)c2[nH]c(=O)c(CN(CC3CCCO3)C(=O)c3cnccn3)cc2c1 (stereo not given) > 76.9 µM
O=C(Nc1ccn(Cc2ccc(F)cc2)n1)c1ccncc1 > 76.9 µM
Cc1ccc(S(=O)(=O)N(C)CC(=O)NC2CC(C)(C)NC(C)(C)C2)cc1 > 76.9 µM
Cc1cnc(C(=O)OCC(=O)NC2CCCC(C)C2C)cn1 (stereo not given) > 76.9 µM
CCOC(=O)C1CCN(C(=O)CSc2ccccc2)CC1 > 76.9 µM
O=C(CCN1C(=O)c2ccccc2C1=O)NCCC1=CCCCC1 > 76.9 µM
Cc1oc2c(c1C(=O)NCc1cc(C(=O)O)co1)CCCC2 > 76.9 µM
N[C@@]12CCc3nonc3[C@]1(O)CC(c1ccccc1)=[N+]2[O-] > 76.9 µM
Cc1c(C)n(C(=O)CN2CCN(c3ccccn3)CC2)c2ccccc12
Cc1cc(NS(=O)(=O)c2ccc(NC(=O)C(C)Oc3ccc4c(C)cc(=O)oc4c3)cc2)no1 (stereo not given) > 76.9 µM
Cc1cc2oc(=O)cc(CN3CCC(C)CC3)c2c(C)c1Cl > 76.9 µM
COc1cc(OC)cc(C(=O)Nc2ncc3c(n2)CC(C)(C)CC3=O)c1 > 76.9 µM
NC1=NC2(CCCCC2)n2c(nc3ccccc32)N1
CCC(c1nnnn1C(C)(C)CC)N(CCCO)Cc1cc2cc(C)cc(C)c2[nH]c1=O (stereo not given) > 76.9 µM
O=C(O)CCSc1nnc(-c2ccc3c(c2)OCO3)o1 > 76.9 µM
Cc1oc2nc(SCC(=O)NC3CCCCC3)nc(N)c2c1C > 76.9 µM
Cc1sc(NC(=O)COc2cccc(-n3cnnn3)c2)c(C#N)c1C > 76.9 µM
CC1(C)OC(C(N)=O)C(C(N)=O)O1 (stereo not given) > 76.9 µM
COc1ccc(C(=O)Nc2cccc(C(=O)N3CCN(C)CC3)c2)cc1 > 76.9 µM
CCn1c(=O)c2c(nc3n2CC(C)CN3CCc2ccccc2)n(C)c1=O (stereo not given) > 76.9 µM
O=C(c1cccc(Cl)c1)N1CCN(c2ccccn2)CC1 > 76.9 µM
Cc1cc2cc(CN(Cc3ccco3)C(=O)NCc3ccccc3)c(=O)[nH]c2cc1C > 76.9 µM
CCc1nnc(NC(=O)c2ccc(COc3ccccc3)o2)s1
CCOc1ccc(C(C)(C)C)cc1S(=O)(=O)N1CCOCC1 > 76.9 µM
COC(=O)c1ccc2c(=O)n(CCCCCC(=O)N3CCN(c4ccc(F)cc4)CC3)c(=O)[nH]c2c1 > 76.9 µM
COc1ccc(C(C)=O)cc1COC(=O)Cn1cnc2ccccc2c1=O > 76.9 µM

Reference: PubChem BioAssay AID360 (National Center for Advancing Translational Sciences (NCATS), 2006)
